Results from patent US20200299400A1 (published 2020).

Biological target: T1, hCD40-Fc (human, UniProt P25942 in part)
T1 construct: Immobilized on the sensor chip; construct not described; not shown: Fc part of hCD40-Fc not described
Assay: SPR; dAb-Fc analyte on immobilized hCD40-Fc; avidity-influenced KDapparent

Chain of hCD40-Fc (P25942 21-193): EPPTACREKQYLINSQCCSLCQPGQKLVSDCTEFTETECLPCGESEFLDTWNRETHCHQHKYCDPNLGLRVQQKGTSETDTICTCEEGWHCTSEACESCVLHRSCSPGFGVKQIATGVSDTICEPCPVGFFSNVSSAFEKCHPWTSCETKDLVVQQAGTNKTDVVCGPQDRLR

Row | Binder | Kd
1 | 3h56-269-IgG4.1 (Fc fusion, also called BMS-986090) EVQLLESGGGLVQPGGSLRLSCAASGFTFRDYEMWWVRQAPGKGLERVSAINPQGTRTYYADSVKGRFTISRDNSKNTLYLQMNSLRAEDTAVYYCAKLPFRFSDRGQGTLVTVSSAST[left out - human IgG4 Fc with S228P (EU numbers)] | < 1 nM
2 | 3h56-269-CT (Fc fusion, The rows marked (UCOE-CHO) are the same protein expressed and purified from UCOE-CHO cells) EVQLLESGGGLVQPGGSLRLSCAASGFTFRDYEMWWVRQAPGKGLERVSAINPQGTRTYYADSVKGRFTISRDNSKNTLYLQMNSLRAEDTAVYYCAKLPFRFSDRGQGTLVTVSSAST[left out - human IgG1 Fc with changes] | < 1 nM
3 | 3h56-269-IgG1-D265A (Fc fusion) EVQLLESGGGLVQPGGSLRLSCAASGFTFRDYEMWWVRQAPGKGLERVSAINPQGTRTYYADSVKGRFTISRDNSKNTLYLQMNSLRAEDTAVYYCAKLPFRFSDRGQGTLVTVSSAST[left out - human IgG1 Fc with D265A (EU numbers)] | < 1 nM
